# Experimental data reported in PubChem BioAssay AID1347055 (National Center for Advancing Translational Sciences (NCATS), 2019).
# Screen size: about 54,000 compounds; about 120 (0.22%) were called active. The inconclusive results got no clear call from the source; some entries with a clear call stand among them for comparison. Calls come from the whole dose curve; as a rule, active = well fitted inhibition curve with a large enough effect; inconclusive = small, poorly fitted or top-dose-only effect, or effect the other way; inactive = flat fitted curve, though single readings scatter. No potency is given beside an inconclusive call; the fits are too rough.
# Target: Fumarate hydratase, mitochondrial (Homo sapiens) (UniProt P07954)
# Assay: Identification of activators of human fumarate hydratase by quantitative high-throughput screening; note: the screen sought activators but most active calls are inhibition curves; nearly all actives have a fitted effect of over 45% in size
# Conditions: FH coupled MDH/diaphorase resazurin fluorescence, 15 min; activity change, negative = inhibition: at 79.9 µM (top of the series)
# From the text: Fumarate hydratase (FH) is a metabolic enzyme that is part of the Krebs-cycle, and reversibly catalyzes the hydration of fumarate to malate. Mutations of the FH gene have been associated with fumarate hydratase deficiency (FHD), hereditary leiomyomatosis, renal cell cancer (HLRCC), and other diseases. Currently there are no high-quality small molecule probes for studying human fumarate hydratase. To address this, we developed a quantitative high throughput screening (qHTS) FH assay and screened a total of 57,037 compounds in dose-response. While no inhibitors of FH were confirmed, a series of phenyl-pyrrolo-pyrimidine-diones (12 compounds) were identified as activators of human fumarate hydratase. […] The binding of two compounds from the series to human fumarate hydratase was confirmed by microscale thermophoresis. The low hit rate in this screening campaign confirmed that FH is a "tough target" to modulate, and the small molecule activators of human fumarate hydratase reported here may serve as a starting point for further optimization and development into cellular probes of human FH and potential drug candidates.
# For primary high-throughput screen, 3 ul of FH solution (containing 13.33nM human fumarate hydratase, 13.33IU/ml malic dehydrogenase, 0.2mM NAD, 0.067mg/ml diaphorase and 0.067mM resazurin in the assay buffer (50 mM Tris pH 8.0, 5 mM MgCl2, 0.01% Brij 3) was dispensed into each well in a black solid bottom 1536-well assay plate (Greiner Bio-One) using a BioRAPTR FRD dispenser (Beckman Coulter, Brea, CA). A 1536-well pintool dispenser outfitted with 20 nl pins (Wako Automation, San Diego, CA) was used to transfer 20 nL of DMSO-solubilized compound (Cherrypick plates) to each 1536-well assay plate. Each compound was screened at five concentrations: 15 nM, 151 nM, 1.5 uM, 15.4 uM, 76.9 uM. Following compound transfer, plates were incubated in room temperature for 10 minutes. 1 uL of substrate solution containing fumaric acid (160 uM) was dispensed via BioRAPTR FRD to initiate the reaction. Plates were immediately transferred to a ViewLux microplate imager (PerkinElmer, Waltham, MA), and any resulting resorufin fluorescence was measured (exitation/emission, 525/598 nm) at 0 and 15 minutes. The exposure time is 1 second. Fluorescence from each well was normalized using enzyme-free and DMSO-treated control wells on each plate, and changes in fluorescence (delta RFU) were calculated using the difference in fluorescent signal for each well at 15 minutes versus 0 minutes.
# % is set by controls: 0 for no effect and ±100 for the full control effect; potency is the fitted concentration of half-maximal effect; tags give direction and shape of the fitted curve.
# Sequence of UniProt P07954 (P07954 whole entry, looked up): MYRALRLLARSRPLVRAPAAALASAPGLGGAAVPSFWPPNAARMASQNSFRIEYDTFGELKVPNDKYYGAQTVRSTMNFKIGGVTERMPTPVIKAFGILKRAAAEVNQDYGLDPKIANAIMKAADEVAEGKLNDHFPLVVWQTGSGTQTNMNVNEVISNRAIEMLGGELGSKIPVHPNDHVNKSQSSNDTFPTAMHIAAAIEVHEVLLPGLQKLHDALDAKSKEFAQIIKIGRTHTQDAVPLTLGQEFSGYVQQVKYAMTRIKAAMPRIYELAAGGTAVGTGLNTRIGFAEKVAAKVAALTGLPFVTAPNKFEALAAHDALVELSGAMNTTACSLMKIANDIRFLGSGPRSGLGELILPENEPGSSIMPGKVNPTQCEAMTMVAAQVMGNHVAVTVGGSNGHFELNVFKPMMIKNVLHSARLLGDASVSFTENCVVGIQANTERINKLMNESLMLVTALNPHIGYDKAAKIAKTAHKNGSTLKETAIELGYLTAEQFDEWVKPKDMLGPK
SMILES,"activity change, negative = inhibition",Potency
COC(=O)C(C)(N)Cc1ccc(O)cc1 (stereo not drawn),inactive: 3.12% [at 53.3 µM],
CCOc1ccccc1NC(=O)c1sc2nc(C)cc(C)c2c1N,inactive: -18%,
O=C(Nc1ccc(C(F)(F)F)cc1)c1cc(S(=O)(=O)NC2CCCCC2)ccc1F,,"inconclusive [inhibitor, full curve]"
O=C(Nc1ccccc1F)c1nc(SCc2ccc(F)cc2)ncc1Cl,inactive: -18.8%,
O=C(CSc1n[nH]c(-c2ccccc2Cl)n1)NCCc1ccccc1,,"inconclusive [inhibitor, partial curve, poor fit]"
CCOC(=O)C1CCN(C(=O)Cn2nc(CC)n3c(cc4sccc43)c2=O)CC1,inactive: -10.8%,
Cc1nn2c(=O)cc(COC(=O)c3cccc(NC(=O)COc4ccccc4C)c3)nc2s1,,"inconclusive [inhibitor, single point]"
Cc1cc(C)c(-c2n[nH]c3c2C(c2ccccc2F)N(Cc2ccco2)C3=O)c(O)c1 (stereo not drawn),,"inconclusive [inhibitor, partial curve, poor fit]"
CCn1c2c(c(=O)n3ncc(C(=O)Nc4cc(Cl)ccc4OC)c13)CN(Cc1ccc(OC)cc1)CC2,,"inconclusive [inhibitor, full curve, poor fit]"
CCCNC(=O)CCC(=O)N1Cc2cccc(OC)c2Oc2ncccc21,,"inconclusive [inhibitor, partial curve, poor fit]"
Cc1ccc(NC(=O)CSc2nc(-c3ccco3)cc(C(F)(F)F)n2)c(C)c1,inactive: -1.03%,
CCCCN1CC(c2nc3ccccc3n2CCCCOc2cc(C)cc(C)c2)CC1=O (stereo not drawn),,"inconclusive [inhibitor, single point]"
COC(=O)c1ccc2c(=O)n3nc(Nc4ccc(F)cc4F)sc3nc2c1,,"inconclusive [inhibitor, single point]"
COc1cc(CNc2ccc3[nH]c(=O)[nH]c3c2)ccc1OCc1ccc(F)cc1Cl,inactive: -9.81%,
CCCCC1CCC(C(=O)N2CC(=O)Nc3ccc(C)cc3C2c2ccc(F)cc2)CC1 (stereo not drawn),,"inconclusive [inhibitor, partial curve, poor fit]"
COc1ccc(NC(=O)c2c(NC(=O)C(F)(F)F)sc3c2CCCCC3)cc1,,"inconclusive [inhibitor, partial curve, poor fit]"
CCN(C(=O)CCc1nc(-c2ccc(C)cc2)no1)c1cccc(C(F)(F)F)c1,,"inconclusive [inhibitor, partial curve, poor fit]"
CCc1ccc2c(-c3cccc(Cl)c3)nc(=O)n(CC)c2n1,,"inconclusive [inhibitor, single point]"
COc1ccc(-n2ccnc(NCc3ccc(Cl)cc3)c2=O)cc1,,"inconclusive [inhibitor, single point]"
CN(C)CCOc1ccc(-c2nc(-c3ccc4c(c3)CCC4=NO)c(-c3ccncc3)[nH]2)cc1,inactive: 4.61% [at 53.3 µM],
CCN(CC)C(=O)C1CCN(S(=O)(=O)c2ccc3c(c2)CCCN3C(C)=O)CC1,inactive: -37%,
CCO[C@H](Cc1ccc(OCCc2ccc(OS(C)(=O)=O)cc2)cc1)C(=O)O,inactive: -8.25% [at 53.3 µM],

SMILES,"activity change, negative = inhibition",Potency
O=C(Nc1cc2cc[nH]c2cn1)c1ccccc1,,inactive
COc1ccc(S(=O)(=O)Nc2cccnc2Nc2ccc(O)cc2)cc1,,inactive
Cc1ccc2cc(-c3c(C)ccc(C(=O)c4c(-c5ccccc5)n(C)n(-c5ccccc5)c4=O)c3N)ccc2n1,inactive: -10.2%,
CCc1ccc(-n2c(SCc3ccccc3F)nc3[nH]ncc3c2=O)cc1,,"inconclusive [inhibitor, single point]"
CCOC(=O)c1c(N)n(-c2cccc(OC)c2)c2nc3ccccc3nc12,inactive: -2.65%,
CCn1c(=O)n(CC)c2cc(N3CCCCC3)c(NC(=O)Nc3cc(C)cc(C)c3)cc21,,"inconclusive [inhibitor, single point]"
Cc1ccn2c(=O)cc(CSc3nnc(NC(=O)c4ccccc4Cl)s3)nc2c1,,"inconclusive [inhibitor, partial curve, poor fit]"
COc1cc(NC(=O)c2noc3c2CSc2ccccc2-3)cc(OC)c1OC,,"inconclusive [inhibitor, partial curve]"
Cc1cc(C)c(CSc2nnc(C)n3c2cc2occc23)c(C)c1,,"inconclusive [inhibitor, single point]"
Cc1ccn2c(Nc3ccccc3C)c(-c3ccccn3)nc2c1,,"inconclusive [activator, full curve, poor fit]"
CCCCOc1ccc(CC/C=C2\SC(=O)N(CCN)C2=O)cc1,inactive: 3.21%,
COc1ccc(CNC(=O)c2cc3c(=O)[nH]c4ccccc4c3s2)cc1,,"inconclusive [activator, single point]"
COc1ccc(NCc2cc3cc4c(cc3n(CC(=O)Nc3ccc(F)cc3F)c2=O)OCO4)cc1,,"inconclusive [inhibitor, single point]"
CCc1ccccc1NS(=O)(=O)c1ccc(OC)c2ncccc12,inactive: -20.5%,
CC1=C(C(=O)OC2CCCCCC2)C(c2c(F)cccc2Cl)CC(=O)N1 (stereo not drawn),,"inconclusive [inhibitor, partial curve, poor fit]"
O=C(O)c1ccc2c(c1)nc(Nc1cccc(Cl)c1)c1ccncc12,,"inconclusive [inhibitor, single point]"
COc1ccc(N2CCN(S(=O)(=O)c3ccc4c(c3)CC(C)N4C(C)=O)CC2)cc1 (stereo not drawn),,"inconclusive [inhibitor, partial curve, poor fit]"
CC(c1ncncc1F)C(O)(Cn1cncn1)c1ccc(F)cc1F (stereo not drawn),inactive: 0.563%,
CCOC(=O)c1cccc(NC(=O)c2cc3c(=O)n(Cc4ccccc4)ccc3nc2C)c1,,"inconclusive [inhibitor, partial curve, poor fit]"
COc1ccc(CCNC(=O)c2cc3c(-c4ccccc4F)nn(C)c3s2)c(OC)c1,,"inconclusive [inhibitor, partial curve, poor fit]"
COc1ccc(NC(=O)c2cc3c(s2)-c2c(C)cccc2OC3)c(OC)c1,inactive: -25.8%,
